The other results are listed elsewhere or left out. The energies were worked out here from pooled read counts, against the library average; single values are noisy.

This test has as its target T1, Pho4 (S. cerevisiae) (UniProt P07270).
T1 sequence: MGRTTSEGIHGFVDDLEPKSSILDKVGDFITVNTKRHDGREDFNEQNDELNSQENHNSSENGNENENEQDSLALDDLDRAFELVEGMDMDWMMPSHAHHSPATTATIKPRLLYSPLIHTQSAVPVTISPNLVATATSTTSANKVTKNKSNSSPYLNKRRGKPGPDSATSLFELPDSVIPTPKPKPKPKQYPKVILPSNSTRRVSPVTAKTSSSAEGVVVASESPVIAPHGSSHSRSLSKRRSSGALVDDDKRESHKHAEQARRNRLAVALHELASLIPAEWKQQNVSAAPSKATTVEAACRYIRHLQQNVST
The test is described as follows: relative binding free energy (BET-seq); higher = weaker binding. Particulars: reference: library average.
Take TATAGCACGTGAGGTC: the “relative binding free energy” value worked out at 0.19 kcal/mol.

Take TGGTGCACGTGGAAGA: the “relative binding free energy” value is -0.03 kcal/mol.

On to ATTGACACGTGAGGGT, for which the “relative binding free energy” value stood at 0.09 kcal/mol.

Consider AGTATCACGTGTATTG, for which the “relative binding free energy” value turned out to be 0 kcal/mol.

GGGCACACGTGCTTGG: the “relative binding free energy” value was -0.03 kcal/mol.

As to GGGCACACGTGTTGTA, the “relative binding free energy” value is 0.21 kcal/mol.

In the case of CTGTGCACGTGATCGG, the “relative binding free energy” value came out at 0.03 kcal/mol.

In the case of AGGGGCACGTGGCGGA, the “relative binding free energy” value is -0.32 kcal/mol.

Take CTGGGCACGTGCGTGG: the “relative binding free energy” value was -0.33 kcal/mol.

As for GTTCTCACGTGGAAGT, the “relative binding free energy” value is 0.2 kcal/mol.

For the sequence GGTAGCACGTGGTTAC, the “relative binding free energy” value was -0.02 kcal/mol.

For TTTGTCACGTGGGTAT, the “relative binding free energy” value was found to be 0.05 kcal/mol.

In the case of AGTTACACGTGTGTAT, the “relative binding free energy” value worked out at 0.06 kcal/mol.

TGCCACACGTGGGGTG: the “relative binding free energy” value was -0.18 kcal/mol.

Regarding ACTTTCACGTGCAGGT, the “relative binding free energy” value stood at 0.39 kcal/mol.

Regarding GGGGGCACGTGTAATA, the “relative binding free energy” value is -0.1 kcal/mol.

On to GGTCGCACGTGGTGGG, for which the “relative binding free energy” value was -0.05 kcal/mol.

With ATTGTCACGTGGTCGA, the “relative binding free energy” value is -0.05 kcal/mol.

For CAATGCACGTGTGGAT, the “relative binding free energy” value was found to be 0.02 kcal/mol.

ATTATCACGTGGAGCG: the “relative binding free energy” value is 0.1 kcal/mol.

In the case of GGTGACACGTGATCGG, the “relative binding free energy” value is 0.06 kcal/mol.

Regarding GACGGCACGTGGGAGA, the “relative binding free energy” value was found to be 0.07 kcal/mol.

With CTTGTCACGTGCGTTG, the “relative binding free energy” value amounted to 0.14 kcal/mol.

Consider CTCGTCACGTGTGGGG, for which the “relative binding free energy” value was found to be 0.05 kcal/mol.

On to CTCGACACGTGGGTTT, for which the “relative binding free energy” value amounted to 0.03 kcal/mol.

Consider GCGTCCACGTGATGGT, for which the “relative binding free energy” value was found to be 0.42 kcal/mol.

For GATGACACGTGAGATG, the “relative binding free energy” value was 0.33 kcal/mol.

AGAGGCACGTGCGGGC: the “relative binding free energy” value was -0.2 kcal/mol.

Turning to TGGGGCACGTGTACAG, the “relative binding free energy” value is -0.03 kcal/mol.

As to TGAGTCACGTGGTCCG, the “relative binding free energy” value amounted to 0.01 kcal/mol.

For the sequence GTAGCCACGTGTGGGA, the “relative binding free energy” value is 0.04 kcal/mol.

In the case of GGTGGCACGTGGGGAT, the “relative binding free energy” value is -0.09 kcal/mol.

Take AATTGCACGTGTGTAA: the “relative binding free energy” value came out at 0.03 kcal/mol.

As to GTTGTCACGTGGGAGT, the “relative binding free energy” value was 0.08 kcal/mol.

As to TAGCGCACGTGCGAGG, the “relative binding free energy” value is -0.08 kcal/mol.

Turning to GAGTACACGTGCGTGG, the “relative binding free energy” value was 0.12 kcal/mol.

With GGAGGCACGTGACGGG, the “relative binding free energy” value is 0.17 kcal/mol.

For TTAGACACGTGTGTAG, the “relative binding free energy” value amounted to 0.06 kcal/mol.

Turning to AATTACACGTGAGTTT, the “relative binding free energy” value stood at 0.32 kcal/mol.

Regarding TTTGACACGTGTGATC, the “relative binding free energy” value was determined as 0.12 kcal/mol.

For the sequence ATGGGCACGTGAATGG, the “relative binding free energy” value was found to be 0.09 kcal/mol.

As for TGCGTCACGTGAGTTG, the “relative binding free energy” value worked out at 0.3 kcal/mol.

GGGTCCACGTGGTGTC: the “relative binding free energy” value is -0.07 kcal/mol.

For AGTTTCACGTGAGTGA, the “relative binding free energy” value was found to be 0.39 kcal/mol.

TGATTCACGTGATTGA: the “relative binding free energy” value came out at 0.44 kcal/mol.

For the sequence TACTTCACGTGGTAGG, the “relative binding free energy” value stood at 0.21 kcal/mol.

In the case of ATAGACACGTGTGGAG, the “relative binding free energy” value worked out at 0.06 kcal/mol.

In the case of TTCGACACGTGATTTT, the “relative binding free energy” value was found to be 0.14 kcal/mol.

As for GGTTTCACGTGCTCGA, the “relative binding free energy” value was 0.3 kcal/mol.

Regarding GTATTCACGTGAAATT, the “relative binding free energy” value came out at 0.35 kcal/mol.

TGGCGCACGTGAAGGT: the “relative binding free energy” value turned out to be 0.19 kcal/mol.

With CGAGTCACGTGAATGG, the “relative binding free energy” value amounted to 0.31 kcal/mol.

As to GTTAACACGTGTTGCA, the “relative binding free energy” value was 0.12 kcal/mol.

On to GGACACACGTGGGGGA, for which the “relative binding free energy” value is -0.16 kcal/mol.

Consider GGTGGCACGTGTCGTT, for which the “relative binding free energy” value amounted to 0.08 kcal/mol.

GTCCACACGTGTGGGT: the “relative binding free energy” value was determined as 0.09 kcal/mol.

For the sequence ATGGCCACGTGGGCGT, the “relative binding free energy” value was -0.19 kcal/mol.

With ACGTTCACGTGGTGAG, the “relative binding free energy” value was determined as 0.22 kcal/mol.

As for CTCGGCACGTGTGAGT, the “relative binding free energy” value is 0 kcal/mol.

On to GGATTCACGTGTTAAA, for which the “relative binding free energy” value worked out at 0.34 kcal/mol.

Turning to CTTGTCACGTGGATGA, the “relative binding free energy” value was found to be 0.11 kcal/mol.

As to TATTGCACGTGAATGG, the “relative binding free energy” value stood at 0.23 kcal/mol.

For GCGGCCACGTGTTGGT, the “relative binding free energy” value was -0.11 kcal/mol.

Take GTGAGCACGTGAAAGG: the “relative binding free energy” value was 0.33 kcal/mol.

Turning to AGTTTCACGTGGGAGT, the “relative binding free energy” value was determined as 0.23 kcal/mol.

In the case of AGATGCACGTGAGCGG, the “relative binding free energy” value turned out to be 0.17 kcal/mol.

In the case of TTGGCCACGTGTTCGT, the “relative binding free energy” value was -0.16 kcal/mol.

Turning to GTGTGCACGTGAATTT, the “relative binding free energy” value was 0.33 kcal/mol.

Consider CCGGTCACGTGGGGTG, for which the “relative binding free energy” value is 0.01 kcal/mol.

As for TGTTTCACGTGGCTAA, the “relative binding free energy” value came out at 0.18 kcal/mol.

Consider TGTGGCACGTGTGAGA, for which the “relative binding free energy” value was 0.16 kcal/mol.

With TGTGTCACGTGATCGT, the “relative binding free energy” value was -0.03 kcal/mol.

As to GTCTACACGTGTTTTT, the “relative binding free energy” value is 0.16 kcal/mol.

As to AAAGACACGTGGTAGG, the “relative binding free energy” value is -0.17 kcal/mol.

On to ATCGTCACGTGTAAGT, for which the “relative binding free energy” value was found to be 0.09 kcal/mol.

GCGGGCACGTGTTGAT: the “relative binding free energy” value amounted to 0 kcal/mol.

Turning to TTGCGCACGTGAGGGC, the “relative binding free energy” value stood at 0.16 kcal/mol.

Regarding TCTGACACGTGGGGGG, the “relative binding free energy” value is -0.04 kcal/mol.

With AGTGTCACGTGTGCAC, the “relative binding free energy” value is 0.08 kcal/mol.

For TACTACACGTGGGGGT, the “relative binding free energy” value is -0.07 kcal/mol.

In the case of GGGTGCACGTGGGACG, the “relative binding free energy” value was -0.04 kcal/mol.

As for AGAGACACGTGTGCTG, the “relative binding free energy” value was 0.1 kcal/mol.

For CGGGTCACGTGGCGCG, the “relative binding free energy” value stood at 0.1 kcal/mol.

With GTAGGCACGTGTGTCA, the “relative binding free energy” value is -0.18 kcal/mol.

On to GTAATCACGTGGTTCT, for which the “relative binding free energy” value is 0.11 kcal/mol.

For TTTTGCACGTGGAATG, the “relative binding free energy” value was 0.19 kcal/mol.

As to GATTTCACGTGTATTA, the “relative binding free energy” value came out at 0.15 kcal/mol.

Regarding CTTGTCACGTGGTGCA, the “relative binding free energy” value was -0.05 kcal/mol.

Take AGCGGCACGTGTTCTT: the “relative binding free energy” value is -0.05 kcal/mol.

In the case of AGCTGCACGTGACGTG, the “relative binding free energy” value came to 0.19 kcal/mol.

As to GGTCACACGTGGAGTG, the “relative binding free energy” value was found to be 0.08 kcal/mol.

Consider TTATACACGTGTAGTT, for which the “relative binding free energy” value came out at 0.1 kcal/mol.

With TCGTGCACGTGTAGTA, the “relative binding free energy” value is -0.07 kcal/mol.

GCGATCACGTGTGGTT: the “relative binding free energy” value amounted to 0.28 kcal/mol.

Regarding CTGTACACGTGTGCGT, the “relative binding free energy” value was found to be 0.08 kcal/mol.

As to AGGGTCACGTGAAGGG, the “relative binding free energy” value was found to be 0.13 kcal/mol.

As for AGGAGCACGTGGGGGT, the “relative binding free energy” value is -0.23 kcal/mol.

TTGGCCACGTGGCGGG: the “relative binding free energy” value was -0.26 kcal/mol.

As to TCGTGCACGTGATGCG, the “relative binding free energy” value is 0.02 kcal/mol.

As to GCAGGCACGTGGGGCT, the “relative binding free energy” value was -0.1 kcal/mol.

For the sequence TTTGTCACGTGGTGCG, the “relative binding free energy” value was 0.11 kcal/mol.

Turning to TCTAGCACGTGGGGGA, the “relative binding free energy” value was -0.15 kcal/mol.

Take GCTGGCACGTGTTTAG: the “relative binding free energy” value is -0.02 kcal/mol.

TTGTCCACGTGTGCTG: the “relative binding free energy” value was -0.01 kcal/mol.

GGACTCACGTGGCTGG: the “relative binding free energy” value was 0.26 kcal/mol.

As to CGGGGCACGTGTGATG, the “relative binding free energy” value was -0.11 kcal/mol.

With AGCGTCACGTGATTTG, the “relative binding free energy” value worked out at 0.11 kcal/mol.

For the sequence TTTGGCACGTGCGGCA, the “relative binding free energy” value was -0.26 kcal/mol.

GTTTACACGTGTTGGT: the “relative binding free energy” value was determined as 0.33 kcal/mol.

For the sequence CGTTGCACGTGGGCGT, the “relative binding free energy” value was -0.45 kcal/mol.

Regarding CGGGGCACGTGCGTTT, the “relative binding free energy” value is -0.08 kcal/mol.

In the case of GTTAGCACGTGGATGG, the “relative binding free energy” value was 0.07 kcal/mol.

As to TAGCTCACGTGCTGGT, the “relative binding free energy” value was determined as 0.32 kcal/mol.

With TCAAACACGTGGAGGT, the “relative binding free energy” value stood at 0.11 kcal/mol.

Take GTAACCACGTGGTGGG: the “relative binding free energy” value was -0.11 kcal/mol.

Values taken from the BET-seq Pho4 binding data (Le et al. 2018).
